Out of some 50,000 compounds screened, about 800 (1.6%) showed an effect of 50% or more. This is one part of the list.

This assay concerns the target Bcl-2-like protein 10 (Homo sapiens) (UniProt Q9HD36). The assay can be described thus: Phenotype converters, Bcl-B/TR3 peptide binding displacement, primary biochemical FP (AID 1240).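 Note: 0% = Bcl-B with tracer peptide and DMSO and 100% = tracer peptide lacking Bcl-B.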 The settings on record: GST-Bcl-B / FITC-TR3 peptide fluorescence polarization; stronger effect = higher value; compound at 3.75 mg/L.
UniProt Q9HD36, sequence (Q9HD36 whole entry, looked up): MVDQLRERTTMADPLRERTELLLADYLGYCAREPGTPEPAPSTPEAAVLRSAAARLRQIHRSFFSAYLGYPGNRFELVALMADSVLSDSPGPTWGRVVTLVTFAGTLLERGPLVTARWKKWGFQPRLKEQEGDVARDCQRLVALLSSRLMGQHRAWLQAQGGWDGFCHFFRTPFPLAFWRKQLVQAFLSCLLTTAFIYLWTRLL
In the case of `COc1ccc(C(=O)NCc2ccc(S(N)(=O)=O)cc2)cc1[N+](=O)[O-]`, the displacement stood at 0.5%.

On to `Nc1c(C(=O)c2ccccc2)c(-c2ccccc2)nc2nonc12`, for which the displacement was -3.4%. Take `CC(C)N1CCN(C(=O)c2ccc(-c3ccccc3)cc2)CC1`: the displacement was -74.4%.

As for `O=C(Nc1cccc(F)c1)/C(=C\c1cccs1)NC(=O)c1cccs1`, the displacement came out at 1.3%.

Consider `COc1ccc(CCNC2CC(=O)N(c3ccc(C)cc3)C2=O)cc1` (configuration not stated), for which the displacement is -4.7%. Consider `CCOC(=O)c1cnn2c(C)cc(-c3ccc(OC)cc3)nc12`, for which the displacement is 6.8%.

For the compound `O=c1oc2c3c4c(cc2cc1CCO)CCCN4CCC3`, the displacement is 75.8%. Then `O=C(Nc1cccc(Cl)c1)C1(c2ccccc2)CC1(Cl)Cl` (configuration not stated), with -5.3%; and `COC(=O)c1c(NC(=S)Nc2ccccc2)sc2c1CCCC2`, with -8.7%. `COc1ccc(OC)c(NC2=NC3(CCCC3)N=C(N)N2)c1`: the displacement was -3.5%.

For `CCc1nc2c(C)cc(C)cc2c(N)c1C`, the displacement was -17.9%. Turning to `O=P(c1ccccc1)(c1ccccc1)c1nc(-c2ccc(Cl)cc2)oc1N1CCOCC1`, the displacement is -2%. Turning to `CCCCC/C(C)=C(\C#N)C(=O)OCC`, the displacement was found to be 20.9%. As for `Cc1ccc(C)c(-c2csc(N)c2C(=O)OC(C)C)c1`, the displacement is -4.4%. For `O=[N+]([O-])c1ccc(OCC(O)CN2CCCCC2)cc1` (configuration not stated), the displacement was -3.8%. As for `O=C(CSc1nnc(CN2C(=O)c3cccc4cccc(c34)C2=O)n1-c1ccccc1)NCc1ccco1`, the displacement amounted to 1%. In the case of `Cc1cc(F)ccc1NC(=O)c1ccccc1`, the displacement amounted to 2.3%. Take `Cc1cc(Cl)ccc1OCC(=O)Nc1ccc2ccccc2c1`: the displacement came out at 2.1%.

As for `COc1cccc2c1NC(c1ccccc1Cl)C1CC=CC21` (configuration not stated), the displacement worked out at 20.4%. Consider `COC(=O)c1sc(NC(=O)C2CCCC2)c(C(=O)OC)c1C`, for which the displacement is -5.9%. With `O=C(NNC(=O)c1ccc2ccccc2c1)c1ccc(Cl)cc1`, the displacement is -5.2%. Then `CCOC(=O)c1cnn(-c2ccccc2)c1NC(=O)c1cccc(F)c1`, with -4.2%; and `O=C(O)c1ccccc1C=Nc1ccc2[nH]c(=O)[nH]c2c1`, with 6%. Consider `COc1ccccc1/C=C1\SC(=N)N(c2ccc(F)cc2)C1=O`, for which the displacement was -8.6%.

`O=C(c1nn2c(c1Br)NC(c1cccs1)CC2C(F)(F)F)N1CCCC1` (configuration not stated): the displacement is -1.1%. `COc1ccc(C2CC(=O)C3=C(C2)Nc2ccccc2NC3c2c(Cl)cccc2Cl)cc1` (configuration not stated): the displacement was 15%.

Take `CCOC(=O)c1sc(NC(=O)COc2c(C)cccc2C)c(C(=O)OCC)c1C`: the displacement was determined as 0%. Consider `COc1cccc(C2/C(=C(\O)c3ccccc3)C(=O)C(=O)N2c2cccnc2)c1` (configuration not stated), for which the displacement is -3.6%. With `Cc1ccc(OCCCCNC(=O)C(O)(c2ccc(F)cc2)c2ccc(F)cc2)cc1` the figure was 2.2%.

For the compound `Cc1ccccc1OCC(=O)Nc1ccc(Cl)c(C(F)(F)F)c1`, the displacement is -9.7%.

For the compound `CC(=O)Nc1ccc(C(=O)/C=C/c2ccc(/C=C/C(=O)c3ccc(NC(C)=O)cc3)cc2)cc1`, the displacement stood at 8.5%. Turning to `O=C(CCc1ccccc1)Nc1ccc(Cl)cn1`, the displacement is -10.4%.

In the case of `CCc1ccccc1NC(=O)C1(c2ccccc2)CC1(Cl)Cl` (configuration not stated), the displacement is -14.1%. Regarding `COc1ccccc1NCN1C(=O)CSC1=O`, the displacement was found to be 17.7%. Take `O=C(Nc1ccc(Cl)c(C(F)(F)F)c1)c1ccccc1I`: the displacement came to 0%.

As to `CS(=O)(=O)N1CCN(Cc2ccccc2F)CC1`, the displacement was 13.2%.

With `CCCOCc1ccc(O)c2ncccc12`, the displacement worked out at 15.4%. `O=C1CC(N2CCN(c3ncccn3)CC2)C(=O)N1c1ccc(Br)cc1` (configuration not stated): the displacement was -4.1%.

As to `Cc1onc(-c2ccccc2Cl)c1C(=O)NC12CC3CC(CC(C3)C1)C2`, the displacement stood at 1%. Then `Cc1ccc(Cl)cc1-c1ccc(C=Nc2ccc(N3CCOCC3)cc2)o1`, with -10.4%.

For the compound `COc1ccc(-c2c3c(c(-c4ccccc4)n2-c2ccc(S(N)(=O)=O)cc2)C(=O)c2ccccc2C3=O)cc1`, the displacement was -5%.

Turning to `O=C1/C(=C/C=C/c2ccccc2)SC(=S)N1CCS(=O)(=O)O`, the displacement turned out to be 16.7%. With `CCOc1ccc(NC(=S)NC2CCCC2)cc1` the figure was -8.1%; with `Cc1ccc(C(=O)Nc2ccccc2C(=O)NC(C)C(=O)O)cc1` (configuration not stated), -4.9%. Then `COc1ccc2c(c1OC)C(=O)N(c1ccccc1C)C2=O`, with -1.3%. Then `COCCCNC(=O)c1c(-c2ccccc2Cl)noc1C`, with 12.1%; and `O=C(Nc1cc([N+](=O)[O-])ccc1C(=O)Nc1cccnc1)c1ccccc1`, with 7.9%; and `CCOC(=O)c1ccc(P(=O)(C(C)(C)C)C(C)(C)C)cc1`, with 33%. In the case of `COc1ccc(Br)cc1/C=C/C(=O)Nc1c(C)cccc1C`, the displacement came to 10%. Then `O=C(Nc1ccccc1Cl)c1ccc(CN2CCOCC2)cc1`, with 2.2%. As to `Cc1ccc(N2C(=O)SC(Nc3ccc(C)c(Cl)c3)C2=O)cc1` (configuration not stated), the displacement is 14.8%.

Regarding `CC(C)c1nnc(NC(=O)CSc2nnc3c(n2)[nH]c2ccccc23)s1`, the displacement is -5.1%.

Consider `O=C(NCc1ccco1)/C(=C/c1cccc(Oc2ccccc2)c1)NC(=O)c1ccccc1`, for which the displacement was determined as 7.8%. With `O=C(/C=C/c1ccc([N+](=O)[O-])cc1)NC(=S)Nc1ccccc1Cl` the figure was -3.4%. For `Cc1cc(=O)oc2cc(OCC(=O)OC(C)C)ccc12`, the displacement is 1.9%. In the case of `Cc1c(NC(=O)/C=C/c2cccc3ccccc23)c(=O)n(-c2ccccc2)n1C`, the displacement was determined as 6.8%. For the compound `COc1ccc(Nc2nc(-c3cc4cc(OC)ccc4oc3=O)cs2)cc1`, the displacement is -3.6%. Take `CCCCN1C(=O)/C(=C\c2ccco2)SC1=S`: the displacement was 5.6%. Regarding `O=C1NC(=S)N/C1=C/c1ccc(OCc2ccccc2)c(Br)c1`, the displacement is 47.7%. Consider `COc1ccc(N2CN=C3SC(CO)(CO)C(=O)N3C2)cc1`, for which the displacement was 10.1%. For `COC(=O)c1c2nc3ccccc3sc-2cc(=O)c1N`, the displacement worked out at 2%.

Turning to `COc1ccc(N2C(=O)/C(=C/c3ccc(OCC(=O)O)c(OC)c3)C(=O)NC2=S)cc1`, the displacement is 6.4%. Turning to `Cc1ccc(C(=O)Nc2ccc3c(c2)OCO3)o1`, the displacement is 0%. `CCc1ccc(NC(=O)C(=O)NCCCN2CCOCC2)cc1`: the displacement came out at 12.3%.

As for `Clc1cccc(OCCCCCCN2CCOCC2)c1`, the displacement was 4.7%. On to `CC1=C(C(=O)OCc2ccccc2)C(c2ccccc2OC(C)C)CC(=O)N1` (configuration not stated), for which the displacement is -6.4%. With `N/C(=N\OC(=O)COc1ccc2ccccc2c1)c1ccccn1` the figure was 11%. Consider `O=C(Nc1ccccc1C(=O)Nc1ccncc1)c1cccs1`, for which the displacement was -8.5%. For `COc1cc(CN2CCN(Cc3ccncc3)CC2)cc(OC)c1OC`, the displacement stood at 2.1%. As for `Cc1ccc(C2CC(C(F)(F)F)n3nc(CO)c(Cl)c3N2)cc1` (configuration not stated), the displacement was determined as 1.8%. `CC1(C)CC(=O)C2=C(C1)OC1=C(C(=O)CC(C)(C)C1)C2c1ccc(-c2ccccc2Cl)o1`: the displacement stood at 8%. Then `CCOc1ccc(C(=O)NCc2ccc3c(c2)OCO3)cc1`, with 1.6%; and `CC1=CC(C)C2COC(c3ccccc3O)C1C2C` (configuration not stated), with 6.6%. Regarding `O=C1/C(=C\c2cc([N+](=O)[O-])c(Cl)cc2Cl)Sc2ccccc21`, the displacement is -9.3%.

Regarding `O=C(NCc1ccc2c(c1)OCO2)C(=O)Nc1ccccc1`, the displacement was determined as 17.3%. Take `COc1cccc(/C=C2/SC(N)=NC2=O)c1`: the displacement came to 13.2%. In the case of `O=[N+]([O-])c1ccccc1/C=N/Nc1nc(-c2ccccc2)cs1`, the displacement was -0.4%.

As for `CCn1c2ccccc2c2cc(NC(=O)COc3ccccc3Cl)ccc21`, the displacement was -10.1%. Take `Cc1ccc(NC(=O)COc2cccc(Cl)c2)c(Br)c1`: the displacement is -2%. Regarding `CC1=C(C(=O)Nc2cccc(Cl)c2)C(c2ccccc2F)NC(=S)N1` (configuration not stated), the displacement amounted to 1.7%. As to `Cc1ccc(C(=O)Nc2ccc3nn(-c4cccc([N+](=O)[O-])c4)nc3c2)cc1`, the displacement is 10.9%. Consider `O=C(O)c1ccc(NS(=O)(=O)c2cccc3cccnc23)cc1`, for which the displacement amounted to 4.6%. On to `COc1ccc(Cl)cc1NC(=O)C1=C(C)NC(=S)NC1c1cccc(Cl)c1` (configuration not stated), for which the displacement turned out to be 12.9%. As for `CN1C(=O)NC(=O)/C(=C\c2cc(Cl)c(OCC(=O)O)c(Cl)c2)C1=O`, the displacement was -3.5%. For the compound `COc1ccc(-n2c(=O)c3c4c(sc3n3c(=S)[nH]nc23)CCCC4)cc1`, the displacement is 2.3%. With `Cc1onc(-c2c(Cl)cccc2Cl)c1C(=O)Nc1nc(-c2ccc3ccccc3c2)cs1` the figure was 16.2%; with `Cc1cc(-c2ccco2)c(C#N)c(SCC(=O)c2ccc(O)c(O)c2)n1`, -10.4%; with `Brc1ccc(C(Cc2ccccc2)Nc2ccccn2)cc1` (configuration not stated), -0.4%. On to `COc1ccc(-c2cc(C(F)(F)F)n3nc(C(=O)N4CCOCC4)c(Cl)c3n2)cc1`, for which the displacement was -9.5%. With `CC(C)(C)c1ccc(S(=O)(=O)Nc2ccccc2[N+](=O)[O-])cc1` the figure was 9.9%; with `CN(C)c1ccc(/C=N/NC(=O)c2ccccc2O)cc1[N+](=O)[O-]`, 6.1%. With `Cc1nc2sccn2c1C(=O)NN=C1CCCCC1`, the displacement came to 3.8%.

On to `Cc1ccccc1NC(=O)c1c(NC(=O)c2ccccc2Br)sc2c1CCCCC2`, for which the displacement is 76.6%.

`Cc1nn(C)c(C)c1NC(=O)c1ccc(-c2ccccc2)cc1`: the displacement was -0.8%. With `CN1CCN(C(=O)c2ccc(S(=O)(=O)N3CCOCC3)cc2)CC1` the figure was -2.9%; with `N#CSCCCCOc1ccccc1F`, 6.3%.

On to `O=S(=O)(Cc1ccccc1)c1nc2ccccc2[nH]1`, for which the displacement is 8.9%. For the compound `CCCCOC(=O)c1ccc(NC(=O)c2cncc(Br)c2)cc1`, the displacement is 16.4%. Regarding `Clc1cccc(/C=N/N2CCN(C(c3ccccc3)c3ccccc3)CC2)c1`, the displacement is -4%. `Cc1ccc(NC(=O)C(C)N2C(=O)c3ccccc3C2=O)c(C)c1` (configuration not stated): the displacement was found to be 1.2%.

With `O=C1c2ccc(-c3nc4ccccc4c(=O)o3)cc2C(=O)N1c1cccc(I)c1`, the displacement was -10.6%. As for `Cc1cc([N+](=O)[O-])c2[nH]c(C(=O)N/N=C/c3ccccn3)c(-c3ccccc3)c2c1`, the displacement amounted to 2.7%. `Cc1ccccc1-c1cc(C(=O)NC(C)C)c2ccccc2n1`: the displacement is -10.7%. Consider `O=C1/C(=C/c2ccc(Cl)cc2)SC(=S)N1CCS(=O)(=O)O`, for which the displacement was found to be 3.2%. With `CCc1ccc(-c2csc(-c3cc4cccc(OC)c4oc3=O)n2)cc1` the figure was -23.6%; with `COc1ccc(C2=NN(C(C)=O)C(c3ccccc3OC)C2)cc1` (configuration not stated), 2.3%. For the compound `COc1ccc(C(=O)Nc2ccc(/C=C/C(=O)c3ccccc3)cc2)cc1`, the displacement is -7.8%.

Take `Cc1cc(C)c(C)c(C=C2C(=O)c3ccccc3C2=O)c1C`: the displacement was -8.6%. Then `COc1cccc(C(=O)Nc2cccc(-c3cc4ccccc4oc3=O)c2)c1`, with -11.3%. With `Cc1ccc(-c2ccc(OC(=O)CCN3C(=O)c4ccccc4C3=O)cc2)cc1` the figure was -7.9%; with `CCC(C(=O)Nc1ccccc1)c1ccccc1` (configuration not stated), -0.8%.

Consider `N/C(=N\c1nc(C(F)(F)F)cc(=O)[nH]1)Nc1ccc(-c2ccccc2)cc1`, for which the displacement amounted to 1.9%.

(Values after PubChem BioAssay AID1240 (Sanford-Burnham Center for Chemical Genomics, 2008).)
